B1: SEQ ID NO: 2: Recombinant protein: Shortened substance (1-60)-repeat-type linker-Fc fusion (mutant modified) (protein)
chain: GSDQSENVDRGAGSIREAGGAFGKREQAEEERYFRAQSREQLAALKKHHEEEIVHHKKEIGGGGSGGGGSGGGGS[human IgG1 Fc with changes omitted here]
B2: SEQ ID NO: 14: Recombinant protein: Shortened substance (1-60)-Shortened linker-Fc fusion (protein)
chain: GSDQSENVDRGAGSIREAGGAFGKREQAEEERYFRAQSREQLAALKKHHEEEIVHHKKEIGGGGS[human IgG1 Fc with C220Q (EU numbers) omitted here]

Key:
[1] = system: SH-SY5Y dopaminergic neuron cell line; assay: Reactive oxygen in neuron cells under rotenone; format: cell-based; conditions: 1 µM rotenone + 100 nM test substance, 24 hours; compared with rotenone alone
Description: The SH-SY5Y dopaminergic neuron cell line was treated with 1 µM of a toxic substance, rotenone and 100 nM of each test substance simultaneously. After 24 hours, the MTT cell viability or the effect of reducing reactive oxygen was observed.

[2] = system: mice in which non-alcoholic fatty liver was induced; assay: GAN diet-induced non-alcoholic fatty liver model; format: in vivo, C57BL/6J mice; conditions: 2.5 mg/kg subcutaneous 6 times a week for 5 weeks
Description: 5-week-old female C57BL/6J mice were obtained and subjected to an acclimation period of 1 week, and then fatty liver induction was performed. The housing conditions of all the mice were always maintained at 18~24° C., 50~60% humidity, and ad libitum feeding was carried out during both the acclimation period and fatty liver induction period. After completing the acclimation period of 1 week, the mice were provided with a GAN diet (Gubra Amylin NASH diet) for 38 weeks to induce non-alcoholic fatty liver. The detailed composition of the product is as Table 8 below.
The mice in which non-alcoholic fatty liver was induced were divided into a control group (n=7) and an experimental group (n=6). PBS to the control group, and the fusion protein (SEQ ID NO: 14) to the experimental group were subcutaneously administered at a dose of 2.5 mg/kg 6 times a week, for 5 weeks. At the end of the test, the weights of adipose tissue and liver tissue were measured, and biochemical tests (OT, PT, Cholesterol, TG), and histological staining (Masson's trichrome) were performed. Masson's trichrome staining was used for analyzing the degree of collagen accumulation, which is the cause of liver fibrosis induced from fatty liver disease, and inflammatory cell infiltration, which is the cause of inflammation, since it stains collagen fibers blue, cytoplasm red, and cell nuclei dark brown.

Row | Molecule | Generation of reactive oxygen [1] | Liver (g ± SD) ([2]; control 1.64 ± 0.20) [g] | Epididymal Fat depot (g ± SD) ([2]; control 2.62 ± 0.67) [g] | TG (mg/dl ± SD) ([2]; control 13.14 ± 9.58) [mg/dL] | BW (g ± SD) ([2]; control 35.64 ± 3.07) [g] | OT (U/L ± SD) ([2]; GOT, AST, control 285.66 ± 46.95) [U/L] | PT (U/L ± SD) ([2]; GPT, ALT, control 138.46 ± 29.03) [U/L] | Collagen Area (% ± SD) ([2]; Masson's trichrome staining, control 7.08 ± 3.81) [%] | Cholesterol (mg/dl ± SD) ([2]; blood, control 128.57 ± 21.32) [mg/dL]
1 | B1 | significantly inhibited | – | – | – | – | – | – | – | –
2 | B2 | – | 1.59 ± 0.11 | 1.50 ± 0.72 | 10.27 ± 2.80 | 30.53 ± 4.62 | 196.70 ± 38.38 | 94.07 ± 36.03 | 5.67 ± 3.01 | 102.30 ± 16.69

From patent US20260274910A1, “SINGLE FUSION PROTEIN AND PHARMACEUTICAL COMPOSITION” (MEDI&GENE INC., priority 2023, published 2026)
